Out of some 310,000 compounds screened, about 2,200 (0.71%) showed an effect of 50% or more. Effects have a minus sign here. This is one part of the list.
These compounds were tested against human ether-à-go-go-related gene (hERG) potassium channel (human, UniProt Q12809) (assay: primary screen, population patch clamp on CHO cells stably expressing hERG).
human ether-à-go-go-related gene (hERG) potassium channel, sequence (Q12809 whole entry, looked up): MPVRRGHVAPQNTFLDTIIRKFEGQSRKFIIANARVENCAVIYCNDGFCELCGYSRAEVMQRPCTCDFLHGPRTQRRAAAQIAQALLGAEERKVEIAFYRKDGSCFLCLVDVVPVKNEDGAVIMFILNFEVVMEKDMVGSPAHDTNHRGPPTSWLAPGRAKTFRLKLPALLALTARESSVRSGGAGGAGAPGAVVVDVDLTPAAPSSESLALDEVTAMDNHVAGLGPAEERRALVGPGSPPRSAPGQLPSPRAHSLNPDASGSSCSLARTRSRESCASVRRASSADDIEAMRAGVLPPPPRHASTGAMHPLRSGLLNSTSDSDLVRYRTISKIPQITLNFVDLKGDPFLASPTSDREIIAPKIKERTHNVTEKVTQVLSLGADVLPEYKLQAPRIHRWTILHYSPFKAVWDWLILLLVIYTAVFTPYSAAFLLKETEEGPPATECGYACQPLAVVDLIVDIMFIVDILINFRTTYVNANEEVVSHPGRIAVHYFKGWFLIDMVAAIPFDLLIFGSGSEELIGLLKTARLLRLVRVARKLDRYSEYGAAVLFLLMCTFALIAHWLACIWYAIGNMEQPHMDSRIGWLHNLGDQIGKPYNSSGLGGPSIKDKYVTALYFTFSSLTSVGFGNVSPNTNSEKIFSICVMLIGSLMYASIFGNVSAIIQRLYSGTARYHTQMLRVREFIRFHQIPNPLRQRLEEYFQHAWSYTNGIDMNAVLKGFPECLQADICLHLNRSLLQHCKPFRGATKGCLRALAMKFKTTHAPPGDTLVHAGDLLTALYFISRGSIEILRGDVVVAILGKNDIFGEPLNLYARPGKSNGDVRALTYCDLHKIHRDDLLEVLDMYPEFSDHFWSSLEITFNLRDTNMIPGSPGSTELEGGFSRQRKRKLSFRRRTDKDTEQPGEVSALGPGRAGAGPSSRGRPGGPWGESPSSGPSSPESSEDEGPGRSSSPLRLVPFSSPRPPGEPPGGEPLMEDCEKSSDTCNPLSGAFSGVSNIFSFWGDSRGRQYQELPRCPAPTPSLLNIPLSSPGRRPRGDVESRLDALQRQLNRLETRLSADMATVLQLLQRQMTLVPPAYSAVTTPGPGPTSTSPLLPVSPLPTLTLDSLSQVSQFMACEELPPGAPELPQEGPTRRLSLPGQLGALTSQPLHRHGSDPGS

SMILES | hERG current change (%, negative = inhibition) at 1uM [%]
CC(C)(C)c1ccc(-c2noc(CCC(=O)N3CCOCC3)n2)cc1 | 13.1
CCC(CNC(=O)c1c(C)nn(-c2ccccc2)c1Cl)c1ccccc1 (centres unmarked) | 13.3
CN(C)/C=C1/Oc2c(ccc3ccccc23)C1=O | 10.4
O=C(/C=C/c1ccc(-c2ccccc2)cc1)NCc1cccnc1 | 4.19
CCSC(=S)c1c(C)[nH]n(-c2ccccc2)c1=O | 11.7
CCO[C@@H]1OC(C(=O)N2CCCCCCC2)=C[C@H](c2ccc(C(F)(F)F)cc2)[C@H]1CCCO | 0.366
CN1C(=O)c2cccc3c(Br)ccc(c23)C1=O | 5.79
COC(=O)c1ccc(NC(=S)N(Cc2cccnc2)Cc2ccco2)cc1 | -6.09
CC1(OC(=O)c2cnc3ccccc3n2)C(=O)C=C2C=C(C3CC3)OC=C2C1=O (centres unmarked) | 9.15
COc1cccc(C(=O)NNC(=O)CCC(=O)O)c1 | 9.94
O=C(CSc1nncn1-c1ccccc1)Nc1ccc(N2CCOCC2)cc1 | 12.2
O=C1CC(N2CC=C(c3ccccc3)CC2)C(=O)N1c1ccc(F)cc1 (centres unmarked) | -1.78
O=C(O)c1ccc(-n2nnnc2SCc2ccccc2)cc1 | 7.44
Cc1onc(-c2c(F)cccc2Cl)c1C(=O)OCc1nnc(-c2ccccc2)o1 | 1.85
COc1ccc(/C=C/C(=O)NC(=S)Nc2ccc(S(=O)(=O)N=C(N)N)cc2)cc1OC | -18.3
Cc1cc(O)c(C(=O)/C=C/c2ccc(C(C)C)cc2)c(=O)o1 | 12.6
Cc1cc(Cl)ccc1NC(=O)C(=O)N/N=C/c1ccc2c(c1)OCO2 | 15
O=C(c1cc(COc2ccc(F)c(F)c2)on1)N1CCN(C2CCCCC2)C(=O)C1 | 4.46
Cc1occc1-c1nnc(SCC(=O)NCC2CCCO2)n1C (centres unmarked) | 3.59
COc1ccc(N/C=C(/C(C)=O)c2ccccc2)cc1 | -9.25
Cc1c(NC(=O)NCc2ccccc2)c(=O)n(-c2ccccc2)n1C | 1.89
Cc1cc(C)c2sc(N(CCN(C)C)C(=O)c3c(F)cccc3F)nc2c1.Cl | 13.1
CCOC(=O)c1ccc(NC(=O)CN(C)S(=O)(=O)c2ccc(OC)cc2)cc1 | 5.86

SMILES | hERG current change (%, negative = inhibition) at 1uM [%]
Nc1ncnc2c1ncn2Cc1ccccc1 | 7.35
CC(=O)Nc1ccc(-n2c(=O)c3ccccc3c3ccccc3c2=O)cc1 | 9.46
COc1ccccc1N1CCN(Cc2cc3c(cc2O)OCO3)CC1 | 1.15
Fc1ccc(NC(=S)Nc2ccc3nccnc3c2)cc1 | 9.67
Cc1ccc(-c2noc(CN(C(=O)C34CC5CC(CC(C5)C3)C4)C(C)C)n2)cc1 | -1.3
O=C1Nc2ccc(Cl)cc2C(C#CC2CC2)(C(F)(F)F)O1 (centres unmarked) | 12.9
CCOc1ccc(NC(=O)Nc2cc(OCC(F)(F)F)cc(OCC(F)(F)F)c2)cc1 | 19.6
CCCC(O)(CCC)C(=O)NNc1ccc(C)cc1 | 13.9
CC(N)C(=O)OC(C)(C)Cc1ccc(Cl)cc1.Cl (centres unmarked) | 13.2
O=C(NC1CCCCCC1)c1cc(=O)[nH]c2ccc(S(=O)(=O)N3CCOCC3)cc12 | 1.03
CCn1c2c(c3ccc(OC)cc31)CCCC2=O | 12.1
O=C(NCCCO)C(=O)NCC(c1ccc2c(c1)OCO2)N1CCN(c2ccc(F)cc2)CC1 (centres unmarked) | -3.74
COc1ccccc1/C=C1\SC(=S)N(CCC(=O)NCCCN2CCOCC2)C1=O | 4.66
CC(C(N)=O)N1CC(c2ccccc2)CC1=O (centres unmarked) | 7.71
CCN(CC(=O)Nc1ccc(NC(C)=O)cc1)C(=O)C1CC(=O)N(Cc2ccc(C)cc2)C1 (centres unmarked) | 11.3
O=C1CSC(c2ccccn2)N1c1ccc(C(F)(F)F)cc1 (centres unmarked) | -1.13
Cc1cccc(NC(=O)COC(=O)CCc2c[nH]c3ccccc23)c1 | 6.93
CCN(C(=N)N=C(N)N)c1ccccc1 | 9.71
Cc1ccc(NC(=O)C2C3C=CC(O3)C2C(=O)O)cc1C (centres unmarked) | 15.3
Cl.c1csc(CNCCN2CCOCC2)c1 | 7.92
COc1cc(/C=C2/C(=O)ON=C2C)ccc1OCc1cccc(F)c1 | 7.62
Cc1ccc(C)n1-n1c(C)nc2scc(-c3ccccc3)c2c1=O | -5.82
CCC(C)n1c(SCC(=O)/C(C#N)=C(\C)N)nc2ccccc2c1=O (centres unmarked) | 5.48

SMILES | hERG current change (%, negative = inhibition) at 1uM [%]
O=C(N/N=C/c1ccco1)c1cc(C2CC2)nc2ccccc12 | 11.2
COc1ccccc1-n1cc(-c2ccc(Br)cc2)[nH]c1=S | 12.5
O=C1CN(c2ccc(Br)cc2)C(=O)N1CC(=O)N1CCCc2ccccc21 | 4.12
Cc1nc(C)c(NC(=O)N2CCc3ccccc32)cc1NC(=O)N1CCc2ccccc21 | 7.68
COCC(C)n1c(C)cc(C(=O)CSc2nnc(N)s2)c1C (centres unmarked) | 4.27
Cc1cccc(NC(=O)CSCC(=O)Nc2cc(S(=O)(=O)N3CCOCC3)ccc2OC(C)C)c1 | -32.8
COc1cc(OC)cc(C(=O)Nc2cccc3c2CCCC3)c1 | 15.1
C/C(CC(=O)Nc1ccc(C)c(Cl)c1)=N\NC(=O)Cc1cccs1 | 3.38
Cc1ccc(OCCC(=O)Nc2ccc(C)c(S(=O)(=O)N3CCOCC3)c2)cc1 | 10
COCCCN1C(=O)C(=O)/C(=C(/O)c2ccccc2)C1c1ccc(N(C)C)cc1 (centres unmarked) | 9.71
CS(=O)(=O)Nc1ccccc1C(=O)NCc1ccco1 | 1.75
O=C(Oc1ccc(=O)n(-c2ccccc2)n1)c1ccc(F)cc1 | 7.23
CC(=O)N1N=C(c2ccccc2)OC1(C)CC(=O)Nc1ccccc1 (centres unmarked) | 12.4
COc1ccc(OCC(=O)N/N=C(\C)CC(=O)Nc2cccc([N+](=O)[O-])c2)cc1 | -9.82
COc1ccccc1S(=O)(=O)Cc1ccc(C(=O)N2CCOCC2)o1 | 5.84
Cc1cc(N(C)C)ccc1[N+](=O)[O-] | 3.19
CCOC(=O)c1ccc(NC(=O)CSc2nc(NC(=O)c3ccccc3)c3c(C)c(C)oc3n2)cc1 | 19.6
COc1ccccc1N1CCN(Cc2nc3ccccc3c(=O)n2CC(C)=O)CC1 | 10.1
O=S1(=O)CCN(Cc2cccc(Cl)c2)CC1 | -0.132
CC1COC(=O)C(NNc2ccc(Cl)c(Cl)c2)=N1 (centres unmarked) | 10.8
CC(=O)Nc1ccc(Sc2ncnc3scc(-c4ccccc4)c23)cc1 | 0.454
Cn1c(=O)[nH]c(=O)c2c1nc(CN1CCOCC1)n2CCCO | -3.71
Cc1ccc2c(c1)cc(CN(Cc1ccc3c(c1)OCO3)C(=O)c1cnccn1)c1nnnn12 | -2.8

SMILES | hERG current change (%, negative = inhibition) at 1uM [%]
COc1cccc(NC(=O)Nc2nnc(N3CCCCC3C)s2)c1 (centres unmarked) | 12.6
CC(C)OC(=O)C1C2c3ccccc3C(c3ccccc32)C1C(=O)O (centres unmarked) | 4.3
CCOC(=O)N1CCN(c2c(NC3CCN(Cc4ccccc4)CC3)c(=O)c2=O)CC1 | 14.4
Cc1ccn2c(Nc3ccccc3C)c(-c3cccnc3)nc2c1 | -7.01
Cc1ccc2c(c1)NC(=O)[C@@]1(C)[C@@H](c3ccccc3)[C@H]3COc4ccccc4[C@@H]3N1C2=O | 18.1
Cc1ccnc(NS(=O)(=O)c2ccc(NC(=O)C34CC5CC(CC(C5)C3)C4)cc2)n1 | 11.2
CC(C)CN(C(=O)COc1ccc2ccc(=O)oc2c1)C1CCS(=O)(=O)C1 (centres unmarked) | 22
C[C@@H]1CCC2[C@](C)(CO)[C@@H](O)CC[C@]2(C)[C@@]12C[C@](CO)(CC(=O)[O-])CO2.O (some centres unmarked) | 13.8
O=C1C2CCCN2C(c2cccnc2)N1c1ccc(Cl)cc1 (centres unmarked) | 5.62
COc1ccc(-c2nc(C(=O)NCCCN3CCOCC3)cc3c2[nH]c2ccccc23)cc1OC | -16.2
CC(=O)N1CCc2cc(S(=O)(=O)CCC(=O)N3CCN(C(=O)c4ccco4)CC3)ccc21 | 6.78
NC1=C(O)C(=O)C(c2ccccc2)O1 (centres unmarked) | 12.1
O=C(Nc1nccs1)C1CCCCN1S(=O)(=O)c1ccccc1 (centres unmarked) | 7.25
O=C([O-])c1ccc(N(Cc2ccccc2)S(=O)(=O)c2ccccc2)cc1.[Na+] | 9.01
C=CCNC(=S)Nc1cccc2ccccc12 | 4.27
CCCCC1CC(/C(C)=N/NC(N)=O)OC1=O (centres unmarked) | 0.545
Cc1[nH]c2ccc3ncccc3c2c1C | 13.3
CC(C)C(NC(=O)c1ccc(C(C)(C)C)cc1)C(=O)Nc1cccc(S(N)(=O)=O)c1 (centres unmarked) | 5.55
O=C(Nc1nnc(-c2ccco2)s1)C1CCCCC1 | 0.589
CCOc1ccc(NC(=O)COc2cccc3c2CCN(Cc2cccnc2)C3=O)cc1 | -11.6

From article PMC4336329 (PLoS ONE, 2015)
